Laboratory results: PubChem BioAssay AID1645882 (National Center for Advancing Translational Sciences (NCATS), 2021)
Hit rate of the full screen: of about 16,000 compounds, about 120 (0.75%) were called active. Roughly 4% stayed inconclusive and do not appear here. Calls come from the whole dose curve; as a rule, active = well fitted inhibition curve with a large enough effect; inconclusive = small, poorly fitted or top-dose-only effect; inactive = no such curve, though single readings can be large or run the other way. This is one part of the list.

target: Rap guanine nucleotide exchange factor 3 (Homo sapiens) (UniProt O95398); assay: Validation qHTS for antagonist of cAMP-regulated guanine nucleotide exchange factor 3 (EPAC1); conditions: EPAC1 Rap1B-BODIPY-GDP exchange, fluorescence; series mostly up to 150 µM; activity change, negative = inhibition: at the top concentration;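 note: plate controls were DMSO for no effect and ATA control for full effect; nearly all actives have a fitted effect of over 75% in size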
How it was run: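 Nucleotide exchange followed as fluorescence loss when BODIPY-GDP leaves Rap1B (480 nm excitation, 540 nm emission), read at 5 min intervals over 30 min. Reaction: 100 nM EPAC1, 250 nM RAP1B-BODIPY-GDP, 50 uM GDP; ATA and DMSO define normalization.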

UniProt O95398, sequence (O95398 whole entry, looked up): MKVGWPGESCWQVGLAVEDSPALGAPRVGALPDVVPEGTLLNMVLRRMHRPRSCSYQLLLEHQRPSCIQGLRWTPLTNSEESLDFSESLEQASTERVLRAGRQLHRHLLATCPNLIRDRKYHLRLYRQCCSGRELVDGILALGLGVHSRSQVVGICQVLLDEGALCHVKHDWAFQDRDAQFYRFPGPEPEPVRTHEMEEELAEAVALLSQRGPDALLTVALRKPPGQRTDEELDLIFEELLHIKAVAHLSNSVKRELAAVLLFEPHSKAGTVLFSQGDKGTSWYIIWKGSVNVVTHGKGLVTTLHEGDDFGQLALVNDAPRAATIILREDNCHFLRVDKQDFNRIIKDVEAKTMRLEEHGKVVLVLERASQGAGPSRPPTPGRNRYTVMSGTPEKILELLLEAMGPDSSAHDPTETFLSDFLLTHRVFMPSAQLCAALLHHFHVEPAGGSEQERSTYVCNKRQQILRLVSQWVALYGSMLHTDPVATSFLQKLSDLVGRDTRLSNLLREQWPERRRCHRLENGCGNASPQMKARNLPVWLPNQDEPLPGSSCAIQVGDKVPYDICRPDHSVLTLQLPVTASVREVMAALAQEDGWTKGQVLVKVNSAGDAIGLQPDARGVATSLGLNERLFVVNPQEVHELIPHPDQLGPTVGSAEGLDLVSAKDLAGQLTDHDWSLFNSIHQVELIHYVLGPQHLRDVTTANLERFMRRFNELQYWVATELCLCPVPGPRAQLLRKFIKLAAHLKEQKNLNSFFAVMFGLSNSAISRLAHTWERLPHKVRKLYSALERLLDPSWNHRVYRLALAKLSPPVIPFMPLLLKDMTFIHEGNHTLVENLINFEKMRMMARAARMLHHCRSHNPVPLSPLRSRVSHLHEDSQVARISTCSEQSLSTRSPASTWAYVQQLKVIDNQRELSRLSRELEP

Activity change, negative = inhibition, inactive:
COc1ccc(CN2[C@@H](CC(=O)O)c3ccc(/C=C/C(=O)O)cc3S2(=O)=O)cc1 17.5%, CC(=O)OCC(=O)[C@@]1(O)CC[C@H]2[C@@H]3C[C@H](C)C4=CC(=O)C=C[C@]4(C)[C@H]3[C@@H](O)C[C@@]21C 18.8%, CCOC(=O)C1=C[C@]2(CC)CCCN3CCc4c(n1c1ccccc41)[C@@H]32, CC1=C2C(O)C(=O)OC3CC4C(C)(C)C(=O)C=C[C@]4(C)C(CC1)[C@@]23C (some centres not stated) 14.9%, Cc1ccc(S[C@@H](CCN2CC[C@H](O)CCC2=O)c2ccccc2)cc1 0.828%, COc1ccc(-c2nc3cnc(N(C)C)nc3n(Cc3cccs3)c2=O)cc1 5.14%, CC1CN(S(=O)(=O)c2cccc3cnccc23)CCN1 (configuration not stated) 10.2% [at 75.8 µM], COc1ccccc1O, CC1CNCCN1S(=O)(=O)c1cccc2cnccc12 (configuration not stated), CNCCC(Oc1ccccc1OC)c1ccccc1 (configuration not stated), O=C(c1ccncc1)N1CCC2(CC1)CCN(c1ccncc1)CC2 20.1%, O=NN(CCCl)C(=O)NC1CCCCC1 11.7%, COc1ccc(C(=O)C[n+]2cccc(Br)c2)cc1 16.7%, O=C(O)Cc1cn(-c2ccccc2)nc1-c1ccc(Cl)cc1 20.4%, Cc1cc(C)cc(C(=O)NCc2nc(-c3cccc(NC(=O)c4ccccn4)c3)oc2C)c1 15.5%, Cn1cc(-c2nc3cncnc3n(CCN)c2=O)c2ccccc21 2.41%, COc1cnc(NS(=O)(=O)c2ccc(N)cc2)nc1, CC(C)=CCC/C(C)=C/COc1c2occc2cc2ccc(=O)oc12 -4.41%, CCCCNC(=O)O[C@@H]1C[C@@H]2CCN3C(=O)CCC[C@H]([C@H]1CC)[C@H]23 -14.1%, N#CC(C#N)=C(N)/C(C#N)=C/c1ccc2[nH]ccc2c1, O=C1C2C=CC=CC2=NC(=S)N1CCN1CCC(=C(c2ccc(F)cc2)c2ccc(F)cc2)CC1 (configuration not stated) 3.06% [at 75.8 µM], Cc1ncsc1CCC(=O)N1CCCC(c2nc(-c3ccncc3)ncc2-c2ccccc2)C1 (configuration not stated) 1.5%, O=C(O)CCC(=O)Nc1ccc(S(=O)(=O)Nc2nccs2)cc1, CCCCCCCCCCCCCC[N+](C)(C)Cc1ccccc1 5.06%, CC(=O)Nc1ccccc1-c1nc(CNC(=O)c2cccc(F)c2)c(C)o1 8.23%, CCOc1ccc(S(=O)(=O)O)c2cccnc12 11.2%, CCOC(OCC)P(=O)(O)CCCNCc1ccc(Cl)c(Cl)c1, Cc1cccc(CN2CCN(C(c3ccccc3)c3ccc(Cl)cc3)CC2)c1 (configuration not stated), COc1ccccc1-c1cc(=O)c2cc(O)ccc2o1 0.281%, Cn1c(=O)c(CCc2ccccc2)nc2cnc(N3CCOCC3)nc21 -0.144%, Cc1ccc2c(n1)Oc1ccc(C(C)C(=O)OCC(=O)N(C)C)cc1C2 (configuration not stated), O=C(O)COc1ccc(OCCNC[C@@H](O)COc2ccccc2)cc1 2.99%, O=C1OC2(c3ccc(O)cc3Oc3cc(O)ccc32)c2ccccc21 -91.4%, Nc1nc2[nH]c(=O)c(=O)[nH]c2c(=O)[nH]1 4.92%, COc1ccc2[nH]cc(CCNc3ccnc(-c4ccc5c(c4)OCO5)n3)c2c1 -18.9%, CCCCCCCCCCCCCCNCCO 14.2%, CC(=O)N(CC(C)C(=O)O)c1c(I)cc(I)c(N)c1I (configuration not stated) 15.5% [at 75.8 µM], CC(=O)OCC1=C(C(=O)O)N2C(=O)[C@@H](NC(=O)CSc3ccncc3)[C@H]2SC1 5.89%, CCNc1ncc2nc(-c3ccc(F)cc3)c(=O)n(Cc3ccc(F)cc3)c2n1 4.32%, Cn1cccc1C(=O)N1CCC2(CC1)CCN(c1ccc(-c3ccccc3)cc1)CC2 21.5%, CN(Cc1ccco1)c1cc(-c2ccc3c(c2)OCO3)ncn1 1.54%, O=C1C(c2ccccn2)=[N+]([O-])c2ccccc21 5.4%, Cc1nc(NS(=O)(=O)c2ccc(N)cc2)nc(C)c1Br 8.35%, O=C(Nc1ccccc1)N1CCCC2(CCNCC2)C1 6.17%, CN(C)c1ccc(-c2nc(NCc3cccnc3)c3ccccc3n2)cc1 4.53%, CCCCCCCC/C=C\CCCCCCCC(=O)NCCc1ccc(O)c(O)c1 -21.2% [at 75.8 µM], COc1ccc(-c2nc3cnc(OC)nc3n(C3CC3)c2=O)cc1 16.1%, H-RKDVY-OH 18.6%, C[C@]12CC[C@@H]3c4ccc(O)cc4CC[C@H]3[C@@H]1CCC2=O, O=c1cnc2cnc(N3CCNCC3)nc2n1C1CC1 16%, Cc1nc2cnc(N3CCN(C)CC3)nc2n(C2CC2)c1=O 9.37%, c1cncc(-c2ccc3ncnc(NC4CCNCC4)c3c2)c1 10.6%, CC(NC(=O)C1CCOCC1)c1nnc2n1CCN(Cc1ccc(F)cc1)CC2 (configuration not stated) 18.1%, O=C1CCN(Cc2cccnc2)CCN1[C@H](CO)Cc1ccccc1 -9.95%, CC(C)(O)C1CC[C@@]2(C)C3CCC4[C@@]5(C)CCCC(C)(C)C5C(O)C[C@]4(C)[C@]3(C)CC[C@@H]12 (some centres not stated) 5.61%, CC(=O)c1c(O)c(C)c(O)c2c1OC1=CC(=O)C(C(C)=O)C(=O)C12C (configuration not stated) 17.8%, CCCCN1CC[C@H]2C=CC[C@@H](C(=O)N3CCN(c4ccccc4)CC3)[C@H]2C1=O 5.69%, OC[C@H]1O[C@@H](n2cnc3c(NC4CCCCC4)ncnc32)[C@H](O)[C@@H]1O, O=C(Nc1ccccc1)N1CC[C@@]2(CCCN(C(=O)c3cnccn3)C2)C1 4.74%, COc1cccc(-c2nc(NCc3cnc(C)cn3)c3ccccc3n2)c1 -9.6%, O=C(c1cnn(-c2nccc(-c3ccccc3F)n2)c1C1CC1)N1CCN(CCO)CC1 9.05%, COc1cc(C(=O)NC2CCCNC2)cc(OC)c1OC (configuration not stated) 4.02%, Oc1ccc2c(c1)OCC1(O)Cc3cc(O)c(O)cc3C21 (configuration not stated) 14.2%, N#Cc1cccc(NC(=O)N2CC[C@@]3(CCCN(C(=O)c4csnn4)C3)C2)c1 19.3%, COC(=O)c1c(-c2cc(OC)c(OC)c(OC)c2)c2ccnc(OCc3ncccn3)c2c(=O)n1Cc1ccnc(C)c1 -12.7%, COCC(=O)Nc1cc(C(=O)N2CCN(c3ccccc3)C(=O)C2)cc2nc(-c3ccccc3)n(C)c12 11%, C[C@H]1CCC(=O)N([C@H](CSc2ccccc2)Cc2ccccc2)CC1 -18.2%, O=C(Nc1cccc(F)c1)N1CC2(CCN(C(=O)c3ccco3)CC2)C1 -7.63%, NC(N)=NCc1cccc(I)c1, CCCCN(CCCC)c1ccc(/C=C/c2ccnc3ccccc23)cc1 203%, CCCCC(CC)CN1CN(CC(CC)CCCC)CC(C)(N)C1 (configuration not stated), COc1cc2c(cc1OC)C(=O)C(CC1CCN(Cc3ccccc3)CC1)C2 (configuration not stated) 2.03%, CC(=O)OCC(=O)[C@@]1(O)CCC2C3CC(C)C4=CC(=O)C=CC4(C)C3C(O)CC21C (some centres not stated) 13.7%, CCCCCC[C@@H](CCC)C(=O)O 32.9%, C=CC(=O)c1ccc2ccccc2c1 10.7%, COc1cccc2c1CCC1=CC(=O)CC[C@@]12C 11%, C=CCOc1ccc(CC(=O)O)cc1Cl 15.3%, Cc1c(C(=O)NCCc2cccnc2)cnn1-c1ncc2c(n1)-c1ccccc1CC2 22.9%, O=C(NCc1nnc2n1CCN(C(=O)/C=C/c1ccccc1)CC2)c1cccc(F)c1 0.541%, N#CC(=C(/N)Sc1ccccc1N)/C(C#N)=C(/N)Sc1ccccc1N -4.91%, COc1cc([C@@H]2c3cc4c(cc3[C@H](O)C3COC(=O)[C@@H]32)OCO4)cc(OC)c1OC (some centres not stated) -3.17% [at 75.8 µM], CC(C)(C)c1ccc(CN2CCN(C(c3ccccc3)c3ccc(Cl)cc3)CC2)cc1 (configuration not stated) -17.7%, COC(=O)[C@@H]1CCCN1Cc1ccc2c(c1)CN(Cc1cccc(Cl)c1)CCO2 9.31%, CCCN1CCC(=O)N([C@H](COc2ccccc2)Cc2ccccc2)CC1 3.68%, O=C(c1ccncc1)N1CCC[C@@]2(CCN(c3cccc(-c4ccccc4)c3)C2)C1 -6.61%, NS(=O)(=O)c1cccc2c1c([N+](=O)[O-])cc1nc(O)c(O)nc12, N#Cc1cccc(-c2nccc(NCc3cccnc3)n2)c1 0.0426%, OCCCNc1ccccc1 17.6%, CC(=O)c1ccc2c(c1)N(CCCN1CCC(CCO)CC1)c1ccccc1S2 14.6% [at 75.8 µM], COc1cccc(CN(CC(=O)NCc2ccccc2)S(=O)(=O)CCl)c1 -9.68%, O=C(NCC1(N2CCOCC2)CCCCC1)c1cnn(-c2nccc(-c3cccs3)n2)c1C1CC1 -5.76%, Cc1[nH]c2c(F)cccc2c1CC(=O)NCCN1Cc2ccccc2OC(C)C1 (configuration not stated) -11.3%, CO[C@@]1(NC(=O)Cc2cccs2)C(=O)N2C(C(=O)O)=C(COC(N)=O)CS[C@@H]21, O=c1c(-c2ccc(F)cc2)nc2cnc(Oc3ccccc3)nc2n1C[C@H]1CCCO1 -3.24%, CN(C)Cc1ccccc1-c1cc(N(C)Cc2ccco2)ncn1 0.453%, COc1cccc(-c2ccnc(-n3ncc(C(=O)NCC(C)(C)CN(C)C)c3C)n2)c1 14.8%, c1ccc(-c2ccc(N3CC4(CCNCC4)C3)cc2)cc1 1.07%, CC1CC[C@]2(CO)CC[C@]3(C)C(=CCC4[C@@]5(C)CCC(O)C(C)(C)C5CC[C@@]43C)C2C1C (some centres not stated) -8.05%, CCCCCCCCCCCCC/C=C/[C@@H](O)[C@H](CO)NC(=O)CCCCCCCCCCCCCCC 29% [at 15.3 µM], CCC1CN(CC(=O)NCc2n[nH]c3c2CCCCC3)Cc2cc(OC)ccc2O1 (configuration not stated) -20.6%, O=C(CCCN1CCC(O)(c2ccc(Br)cc2)CC1)c1ccc(F)cc1 -6.82% [at 75.8 µM], CNCC[C@H](Oc1cccc2ccccc12)c1cccs1 15%, CC(=O)ON(C(C)=O)S(=O)(=O)c1ccc(Cl)cc1 14%, COc1cccc(Nc2ncc3nc(CCc4ccccc4)c(=O)n(Cc4cccs4)c3n2)c1 7.3%, COc1cccc(OC)c1CN1CCC2(CCC(CNC(=O)c3ccccc3)O2)CC1 (configuration not stated) 15.7%, COC(C)=O 49.2%, Nc1ncnc2nc(Cl)[nH]c12 7.08%
